Some of the results follow.
tested on: T1, C. trachomatis L2/434/Bu expressing GFP (CTL2-GFP); parameters: species or system HeLa; C. trachomatis total inclusion area by high-content imaging, normalised to DMSO; conditions: total inclusion area; 28.5 h, 10 µM; inhibitor
T1 construct: L2/434/Bu GFP intracellular growth in HeLa cells
Summary of the method: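 Following bulk GFP and resorufin fluorescence reads, infected cells were fixed, Hoechst-stained and imaged on a high-content platform. Inclusion total area and number per well served as growth proxies; nuclei counts indicated host viability. MICs were derived as for the fluorescence assay.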

| SMILES | % of control remaining |
| --- | --- |
| Clc1ccc(-c2csc(NCc3ccco3)n2)cc1 [CBK058168] | 97.7704 |
| CCCc1[nH]nc(O)c1CCc1ccccc1 [CBK075083] | 114.93 |
| Cc1c(F)cccc1CN1CCN(S(=O)(=O)c2ccc(C(=O)c3ccccc3)cc2)CC1 [CBK062929] | 101.407 |
| CC(C)NC(=O)N[C@H]1CCN2C(=O)N(c3ccc(F)c(Cl)c3)C(=O)[C@@H]2C1 [CBK289540] | 108.719 |
| O=C1NC2(CCC(=O)N(Cc3ccccc3)CC2)Oc2ccccc21 (stereo not shown) [CBK284438] | 72.1727 |
| CCOc1ccccc1NC(=O)CC1Sc2ccc(C(F)(F)F)cc2NC1=O (stereo not shown) [CBK263659] | 84.3878 |
| O=C(Nc1cccc(-c2nc3ncccc3o2)c1)c1cccnc1Cl [CBK058695] | 90.0085 |
| Cc1ccc(-c2csc3ncnc(SCc4nc5ccccc5[nH]4)c23)cc1 [CBK267590] | 105.423 |
| CCCCOC(=O)CCn1c(=S)oc2ccccc21 [CBK019181] | 68.6906 |
| Cc1cccc(OCC2CCCN(C(=O)Cn3cc(C)cn3)C2)c1 (stereo not shown) [CBK281531] | 90.1799 |
| Cc1c(C(C)NC(=O)C2C3CCC(O3)C2C(=O)O)cnn1C (stereo not shown) [CBK286887] | 77.98 |
| COc1ccc(/C=C(\C)C(=O)Nc2cc3ccccc3c(N3CCNCC3)n2)cc1OC [CBK038937T] | 69.477 |
| O=C(CC(C(=O)O)c1c[nH]c2ccccc12)c1ccc(Cl)cc1 (stereo not shown) [CBK286620] | 57.6586 |
| CC(=O)Nc1c(C#N)cnn1C [CBK046332] | 42.2367 |
| O=C(Nc1ccc2oc(-c3cccnc3)nc2c1)c1ccc(Br)o1 [CBK263436] | 72.4226 |
| O=C(NCC1COc2ccccc2O1)c1cc(-c2ccc(Cl)cc2)cnc1N1CCOCC1 (stereo not shown) [CBK076286] | 106.93 |
| COc1cc2c(cc1/C=C1/S/C(=N\c3ccccc3)N(CCCN3CCOCC3)C1=O)OCO2 [CBK265631] | 119.475 |
| c1ccc(C(Oc2nccnc2-c2cccs2)c2ccccc2)cc1 [CBK107061] | 72.6708 |
| c1ccc2cc(OCc3ccc(-c4nccnc4-c4nnn[nH]4)cc3)ccc2c1 [CBK050818] | 89.8986 |
| c1ccc(SCCN2CCOCC2)cc1 [CBK027679] | 104.155 |
| O=C(C1=C(O)C(=O)N(CCCN2CCOCC2)C1c1cccnc1)c1cc2ccccc2o1 (stereo not shown) [CBK266147] | 100.545 |
| CC(=O)c1ccc(N2CCN(Cc3cc(C(C)(C)C)c(O)c(C(C)(C)C)c3)CC2)cc1 [CBK261749] | 94.558 |

From PMC12040169 (PLOS Biology, 2025)
